From the RNAGym collection of RNA variant scans (doi:10.7554/elife.90254)
The source gives no read counts; variants with many changes may rest on few reads.

B1: LINE1-mini (parent)
chain: GGCAGAGCUCAACACAGCGUGGCAAAGUGGCUGUGGCUAGACUGCC

Variants of: B1
Assay: self-cleavage, relative activity (ratio to wild type); higher = more cleavage; in vitro, sequencing; the parent is a self-cleaving ribozyme

Variant	self-cleavage
A14C U38G C46A	0.02
A14G G22U A24U G29C G33C	0.08
C13U G21C U28A	0.18
C13U G33C U34A	0.03
C13U U34A U43G	0.65
A14C G17A C42G	0.07
A14G C18A C23G U32G G44C	0.01
A14C C15U U20A G27A A39G	0.01
C13U G21A G22U	0.11
A14G C15A G27C	0.09
C13U G21C A25G	0.05
A14C U20A G27C U32G	0.09
A14C G21U G22C G33C	0.02
A14C G17A G33C	0.02
C13U C23U G29U	0.14
C13U G21U A26C C31A C42A	0.04
A14C C15A C31U	0.01
A14C U28G G30C U34G C37U G40C	0
A14C G36A U38C	0.1
A14G C37A C45A	0.01
A14C A16U G33U U38A	0.24
A14C G27U U34A	0.01
A14C G19U U34C	0.04
C13U U28G C46A	0.1

Variant	self-cleavage
A14C G27C G36U	0.01
A14C G17A G19A	0.08
A14C G22U A24G U32C	0.06
C13U G21C C42U	0.06
C13U G27A G33U U38C C46G	0.11
C13U G36U U38A C46U	0.06
A14C U20A A25U U38G	0.01
A14G G19A C23A G27U G35U G40U C42A	0.03
C13U G17A G21A G27A U28G U32G U34C	0.11
A14G A24C G29U C37U	0.33
C13U U20A G36U U38G	0.02
A14C G17C A26U	0.12
A14G A24U A41U	0.2
A14C G29U G30U	0.05
C13U G40U C42G	0.06
A14C G35U A41U C45U	0.05
A14G C15A G44C	0.06
C13U G17U G19A A24U U38A	0.02
A14C U34G U38A	0.02
C13U G17U G30U C31U	0.43
C13U G27U C45A	0.15
A14G G21U C31G	0.06
C13U G33C C42A	0.04
C13U G17A A25U G36A A39U	0.04

Variant	self-cleavage
A14G G21U G35U G44C	0.03
C13U U20G U34C	0.02
A14C C18A U38A G40C	0.11
A14G G17A U28C G33U G35U	0.05
A14G A25U G30A U38G C46U	0.02
C13U G29U G44U	0.06
A14C G19U G36A G40A C46A	0.01
C13U G27A C31G	0.02
A14G A26G U28A A39C C45G	0.08
C13U G19A A24U G35U G40A G44C	0.1
C13U U20G A26G G35A	0.16
A14C G19U G44A	0.03
A14C G19A C46A	0.02
C13U U20C C45A	0.14
C13U G21U U28C C46A	0.21
A14C A24G G27A G35C	0.05
A14G A16C C18U A26C G27U G44A	0
C13U C31A C37U C46U	0.12
A14C G30U G35A	0.07
A14G A25C G35A G40U	0.06
A14C U20A G27C U32G C42U	0.12
C13U G17C A24C A25U U43C	0.03
A14C G19A G30A C42A	0
A14C U32G G33U	0

Variant	self-cleavage
C13U G21C G40U	0.04
A14G G17U G21C G22U G40C C46G	0.03
A14C G29C U38C	0.01
C13U U20C G21U C23A A25G	0.04
A14C G35U G40U	0.06
A14C G22A A39U	0.04
C13U G29A C46U	0.11
A14C G36U U38A	0.01
A14G A41U U43C	0.09
C13U G17U G29A U34G	0
C13U U38G C42U	0
C13U G27U G30C A41G	0.05
A14C C15A G27A U43C	0.01
A14C G19U A25C U28A	0.05
A14G A24U A25G G33U A41U	0.04
A14C C18U G44U	0.12
A14G C18G U32C	0.04
C13U G19U G33C	0.03
A14G G19A U20G	0.19
C13U C31G U32G G36A C46G	0.03
A14C A26U G35C G36A U38C	0.03
A14C A16C A26U G29U	0.31
A14C C15A U38A	0.06
A14C G21C A24G	0.05

Variant	self-cleavage
A14C G21U A25U C31A	0.1
A14C A26G U32C G33A C46G	0.23
A14C C23U G30A A39G C42G	0.02
A14G G19C U32A G44U	0.06
A14C C37U C45U	0.06
A14G A25C G29A C37G C46U	0.01
C13U G21A G29A C45G	0.05
C13U G30A G36U C42U	0.08
C13U G22A C31A	0.12
A14C C15G G22A	0.03
C13U C23U G27A	0.38
C13U G29U G40C	0.3
A14C U20C G30A G33U	0.04
A14G C18U G29U A41G G44A C45U	0.04
A14C C18G G44A	0.13
A14G C23U U32C A39C	0.03
A14C G30A C46G	0.03
A14G G17U G29U C42A	0.21
A14C C23U U28A	0.01
C13U U28A G30A C31G	0.05
C13U G30C U32C A39C	0.09
C13U G21U C23A C46G	0.02
A14C G17A G30C	0
C13U G22U A24C	0.2

Variant	self-cleavage
C13U U32A G33C G40U	0.04
A14C G35C C37A A41C	0.02
C13U G35A C42G C45U	0.01
A14G C15U G30C U32C A39G	0.04
C13U G40U G44U	0.03
A14C G33A C37A	0.07
A14C G29A G30U G35U	0.11
A14C C18U G29C	0.01
A14G C15G G19U G29U G33A A41G	0.04
C13U G17U G21A G44U	0.02
A14C C31U U34G	0.04
A14C C31U U34C	0.01
C13U C45A C46U	0.15
A14C G17C G21A A24C G30A	0.22
A14G A25C U34C G40C	0.07
A14C C23A C45A	0.04
A14C U32G G36U G40A	0.15
A14G C23A U32C U34A G35A	0.03
C13U G19A G40A	0.2
C13U G17A G19U	0.05
A14C G19U C23A U32A G40A	0.03
A14C G19A U32G	0.07
C13U U34G C45A	0.03
C13U U28A G30U	0.02

Variant	self-cleavage
C13U G17U A26U G30A G40A C45U	0.03
A14G C15U A24C G36U A39G U43A	0
A14G C18G G33C C46U	0
A14G C23A A39G G44C C45G	0.11
A14C C23U G33A	0.15
A14G C23U A24C	0.45
A14C U34G A39U	0.21
A14G C15U G29U	0.2
A14G A16C C31A	0.09
A14C A26C U43C G44C	0
A14C G22A G30A A41U	0.16
A14G C31A A41C	0.03
A14C U20C G33U C37G A39U	0.02
C13U G19U A39U	0.13
A14C G17U C18A G27C A41G	0.19
C13U G17A A26G	0.03
C13U U32A G40C	0.05
C13U U32A G40A	0.03
A14G G17C A25G C45A	0.1
A14G A26U A39U C42G C45U	0
A14C C15U A26U G27U C46G	0
A14C G35A U38C A41U	0.1
C13U U34G U43G	0.07
